# Measured values taken from paper PMC12820563, “FoxP3 forms a head-to-head dimer in vivo and stabilizes its multimerization on adjacent microsatellites”.
# The other results are listed elsewhere or left out.
# Target: T1, MBP-FoxP1dN (Mus musculus, UniProt P58462 326-579)
# T1 sequence: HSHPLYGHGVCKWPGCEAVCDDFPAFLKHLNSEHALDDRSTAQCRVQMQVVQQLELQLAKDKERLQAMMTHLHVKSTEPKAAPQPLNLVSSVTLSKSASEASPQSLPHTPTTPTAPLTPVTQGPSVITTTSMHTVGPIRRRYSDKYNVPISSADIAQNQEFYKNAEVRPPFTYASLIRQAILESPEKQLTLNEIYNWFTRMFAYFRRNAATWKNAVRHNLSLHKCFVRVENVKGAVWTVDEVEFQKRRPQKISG
# Test: PD-seq (MBP pull-down with sequencing); 20 mM Tris-HCl pH 7.5, 100 mM NaCl, 1.5 mM MgCl2, 0.4 uM protein, 0.1 uM dsDNA library, 30 min, room temperature, amylose pull-down; high values mean tight binding
# Details: protein: recombinant; tags: His6-MBP; chain copies: 2; dsDNA, one strand shown
# Summary of the method: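 Binding is given as reads-per-million enrichment, pull-down over input, with replicates pooled. The bait was an N-terminus-lacking mouse FoxP3 or FoxP1 fragment with a His6-MBP tag, expressed in E. coli and used at 0.4 µM with 0.1 µM Klenow-filled degenerate double-stranded DNA library for 30 min at room temperature in Tris pH 7.5 buffer with NaCl and MgCl2. Amylose resin pull-down with three washes was followed by proteinase K release, PCR barcoding and Illumina sequencing.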
row,Sequence,binding signal
1,GATGATTGTTCTCCCAGCTGATGAATTGCTGATATCGAGTAAACAAATTTTCCTAATCTTTCTGTTCAAGCGCCATCTAC,1.2 RPM ratio (pull-down/input)
2,GATGATTGTTCTCCCAGCTGATGAATTAACCGATTCGAGTAAACAAATTTTCCTAATCTTTCTGTTCAAGCGCCATCTAC,0.902 RPM ratio (pull-down/input)
3,GATGATTGTTCTCCCAGCTGATGAATTGGGCCTATCGAGTAAACAAATTTTCCTAATCTTTCTGTTCAAGCGCCATCTAC,0.908 RPM ratio (pull-down/input)
4,GATGATTGTTCTCCCAGCTGATGAATTGTATACTTCGAGTAAACAAATTTTCCTAATCTTTCTGTTCAAGCGCCATCTAC,1.68 RPM ratio (pull-down/input)
5,GATGATTGTTCTCCCAGCTGATGAATTGATGGCATCGAGTAAACAAATTTTCCTAATCTTTCTGTTCAAGCGCCATCTAC,1.15 RPM ratio (pull-down/input)
6,GATGATTGTTCTCCCAGCTGATGAATTGCCGAGGTCGAGTAAACAAATTTTCCTAATCTTTCTGTTCAAGCGCCATCTAC,0.811 RPM ratio (pull-down/input)
7,GATGATTGTTCTCCCAGCTGATGAATTAATTTGTTCGAGTAAACAAATTTTCCTAATCTTTCTGTTCAAGCGCCATCTAC,1.13 RPM ratio (pull-down/input)
8,GATGATTGTTCTCCCAGCTGATGAATTGACTCTCTCGAGTAAACAAATTTTCCTAATCTTTCTGTTCAAGCGCCATCTAC,0.985 RPM ratio (pull-down/input)
9,GATGATTGTTCTCCCAGCTGATGAATTCTTATGGTCGAGTAAACAAATTTTCCTAATCTTTCTGTTCAAGCGCCATCTAC,0.974 RPM ratio (pull-down/input)
10,GATGATTGTTCTCCCAGCTGATGAATTCTAAACATCGAGTAAACAAATTTTCCTAATCTTTCTGTTCAAGCGCCATCTAC,2.07 RPM ratio (pull-down/input)
11,GATGATTGTTCTCCCAGCTGATGAATTTACATCATCGAGTAAACAAATTTTCCTAATCTTTCTGTTCAAGCGCCATCTAC,1.5 RPM ratio (pull-down/input)
12,GATGATTGTTCTCCCAGCTGATGAATTTAAGTAGTCGAGTAAACAAATTTTCCTAATCTTTCTGTTCAAGCGCCATCTAC,0.942 RPM ratio (pull-down/input)
13,GATGATTGTTCTCCCAGCTGATGAATTGAGAGGTTCGAGTAAACAAATTTTCCTAATCTTTCTGTTCAAGCGCCATCTAC,0.733 RPM ratio (pull-down/input)
14,GATGATTGTTCTCCCAGCTGATGAATTCGATTTTTCGAGTAAACAAATTTTCCTAATCTTTCTGTTCAAGCGCCATCTAC,0.928 RPM ratio (pull-down/input)
15,GATGATTGTTCTCCCAGCTGATGAATTGATACGGTCGAGTAAACAAATTTTCCTAATCTTTCTGTTCAAGCGCCATCTAC,0.934 RPM ratio (pull-down/input)
16,GATGATTGTTCTCCCAGCTGATGAATTTAGATATTCGAGTAAACAAATTTTCCTAATCTTTCTGTTCAAGCGCCATCTAC,1.06 RPM ratio (pull-down/input)
17,GATGATTGTTCTCCCAGCTGATGAATTAGAACTATCGAGTAAACAAATTTTCCTAATCTTTCTGTTCAAGCGCCATCTAC,0.938 RPM ratio (pull-down/input)
18,GATGATTGTTCTCCCAGCTGATGAATTTACCGTGTCGAGTAAACAAATTTTCCTAATCTTTCTGTTCAAGCGCCATCTAC,1.12 RPM ratio (pull-down/input)
19,GATGATTGTTCTCCCAGCTGATGAATTAACACTGTCGAGTAAACAAATTTTCCTAATCTTTCTGTTCAAGCGCCATCTAC,1.01 RPM ratio (pull-down/input)
20,GATGATTGTTCTCCCAGCTGATGAATTCTGGCAATCGAGTAAACAAATTTTCCTAATCTTTCTGTTCAAGCGCCATCTAC,1.01 RPM ratio (pull-down/input)

row,Sequence,binding signal
1,GATGATTGTTCTCCCAGCTGATGAATTCCAGACTTCGAGTAAACAAATTTTCCTAATCTTTCTGTTCAAGCGCCATCTAC,0.779 RPM ratio (pull-down/input)
2,GATGATTGTTCTCCCAGCTGATGAATTCTAGATTTCGAGTAAACAAATTTTCCTAATCTTTCTGTTCAAGCGCCATCTAC,0.859 RPM ratio (pull-down/input)
3,GATGATTGTTCTCCCAGCTGATGAATTTCAATAATCGAGTAAACAAATTTTCCTAATCTTTCTGTTCAAGCGCCATCTAC,1.31 RPM ratio (pull-down/input)
4,GATGATTGTTCTCCCAGCTGATGAATTGTAAGGATCGAGTAAACAAATTTTCCTAATCTTTCTGTTCAAGCGCCATCTAC,1.01 RPM ratio (pull-down/input)
5,GATGATTGTTCTCCCAGCTGATGAATTACGGTCGTCGAGTAAACAAATTTTCCTAATCTTTCTGTTCAAGCGCCATCTAC,0.9 RPM ratio (pull-down/input)
6,GATGATTGTTCTCCCAGCTGATGAATTTAAAGCCTCGAGTAAACAAATTTTCCTAATCTTTCTGTTCAAGCGCCATCTAC,0.862 RPM ratio (pull-down/input)
7,GATGATTGTTCTCCCAGCTGATGAATTACGCCCATCGAGTAAACAAATTTTCCTAATCTTTCTGTTCAAGCGCCATCTAC,1 RPM ratio (pull-down/input)
8,GATGATTGTTCTCCCAGCTGATGAATTGACTAGTTCGAGTAAACAAATTTTCCTAATCTTTCTGTTCAAGCGCCATCTAC,1.08 RPM ratio (pull-down/input)
9,GATGATTGTTCTCCCAGCTGATGAATTTTACTGATCGAGTAAACAAATTTTCCTAATCTTTCTGTTCAAGCGCCATCTAC,0.894 RPM ratio (pull-down/input)
10,GATGATTGTTCTCCCAGCTGATGAATTTAACATGTCGAGTAAACAAATTTTCCTAATCTTTCTGTTCAAGCGCCATCTAC,0.908 RPM ratio (pull-down/input)
11,GATGATTGTTCTCCCAGCTGATGAATTAAGCGTATCGAGTAAACAAATTTTCCTAATCTTTCTGTTCAAGCGCCATCTAC,1.07 RPM ratio (pull-down/input)
12,GATGATTGTTCTCCCAGCTGATGAATTATTACTTTCGAGTAAACAAATTTTCCTAATCTTTCTGTTCAAGCGCCATCTAC,1.27 RPM ratio (pull-down/input)
13,GATGATTGTTCTCCCAGCTGATGAATTATGCCCTTCGAGTAAACAAATTTTCCTAATCTTTCTGTTCAAGCGCCATCTAC,0.986 RPM ratio (pull-down/input)
14,GATGATTGTTCTCCCAGCTGATGAATTTCGAATGTCGAGTAAACAAATTTTCCTAATCTTTCTGTTCAAGCGCCATCTAC,0.898 RPM ratio (pull-down/input)
15,GATGATTGTTCTCCCAGCTGATGAATTGTAAAACTCGAGTAAACAAATTTTCCTAATCTTTCTGTTCAAGCGCCATCTAC,1.04 RPM ratio (pull-down/input)
16,GATGATTGTTCTCCCAGCTGATGAATTTAGTCCTTCGAGTAAACAAATTTTCCTAATCTTTCTGTTCAAGCGCCATCTAC,0.909 RPM ratio (pull-down/input)
17,GATGATTGTTCTCCCAGCTGATGAATTAACCGACTCGAGTAAACAAATTTTCCTAATCTTTCTGTTCAAGCGCCATCTAC,0.787 RPM ratio (pull-down/input)
18,GATGATTGTTCTCCCAGCTGATGAATTGAAATAATCGAGTAAACAAATTTTCCTAATCTTTCTGTTCAAGCGCCATCTAC,1.22 RPM ratio (pull-down/input)
19,GATGATTGTTCTCCCAGCTGATGAATTAGTCGCCTCGAGTAAACAAATTTTCCTAATCTTTCTGTTCAAGCGCCATCTAC,0.938 RPM ratio (pull-down/input)
20,GATGATTGTTCTCCCAGCTGATGAATTAGGTACTTCGAGTAAACAAATTTTCCTAATCTTTCTGTTCAAGCGCCATCTAC,0.934 RPM ratio (pull-down/input)
